44 sequences from the supplement of paper PMC11417369 can be followed below.

± gives the standard deviation of the averaged measurements. The list shows a part of the results.

The experiment has as its system PfAP2-LT AP2 domain (GST-tagged). In words: gcPBM binding intensity (ln(normalized median fluorescence intensity)); higher = stronger DNA binding. Put shortly: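 After 1 h on an Agilent 4 × 180k array of primer-extended double-stranded 36-bp intergenic genomic probes and negative controls, bound GST-tagged P. falciparum DNA-binding domains were detected with Alexa488 anti-GST antibody and scanned at 488 nm. The domains had been expressed in E. coli, and binding took place in 1× PBS with 1% milk, 0.2 mg/ml BSA, 0.5% salmon testes DNA and 0.03% Triton X-100. Binding intensity is the highest Masliner-normalised natural-log median intensity across replicate spots of either probe orientation.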
Take “TATATATATATATATACACACTATATAATTCAAACA [CACACA_site4712]”: the “gcPBM binding intensity (ln)” value turned out to be 9.47 ± 0.17.
The same measure for “ATGAATAAATTAAAAATGCACACTTTGATGGGTACA [CACACA_site2157]”: 8.88 ± 0.47.
The same measure for “CTTTTTTGTTAAAGTGTGCGCAATAGTTATAGACTT [GTGCAC_site9670]”: 8.87 ± 0.38.
On to “GTAAAAATAAAAACTGGTACACAAGTTGTTATAAAA [XGTACX_site502]”, for which the “gcPBM binding intensity (ln)” value amounted to 8.77 ± 0.46.
The same measure for “AACATGCTCAACTTTTTTTTTTTTTTTTTTTTTTTT [CACACA_negctrl_site1617]”: 8.9 ± 0.24; for “AAAATAAAATAAAAGTGTACGTTTTAAGAACATTGA [XGTACX_site2382]”: 8.68 ± 0.52; for “TATAATCAATATGTAACACACAAAAGTTATATACTT [CACACA_site7368]”: 8.91 ± 0.34.
The same measure for “AATCTTAAAAATATATGTACTAAAAAAAAAAAAAAT [XGTACX_site6195]”: 8.53 ± 0.45; for “TAATAATAAAAATAAACACACATATATATGTATATA [CACACA_site2853]”: 8.93 ± 0.34; for “AAATTATATTCAAGTGCATGTAACTTATTATTATAT [TGCATGCA_site526]”: 8.71 ± 0.39.
As for “ATATTTATTTATTTATGTACGCACACAGTTGATATT [XGTACX_site5808]”, the figure is 9.37 ± 0.4; as for “CACTATATAAGAACCTGTACTCAATTTTGCAATATA [XGTACX_site7238]”, 8.68 ± 0.49; as for “TATATTTTCCTGCAAACACACATATAAATGTGTAGA [CACACA_site533]”, 8.78 ± 0.3.
Take “ATAAAAAGGAGACACACACACACACGCATATTTATA [CACACA_site6551]”: the “gcPBM binding intensity (ln)” value was 10.3 ± 0.26.
Take “TATATTAAACCATGTAGTACCTTGAATAAATATTAT [XGTACX_site8254]”: the “gcPBM binding intensity (ln)” value stood at 8.63 ± 0.54.
Consider “AAAAAAAAATACATATGTACTTATGTATAATGTTGT [XGTACX_site8104]”, for which the “gcPBM binding intensity (ln)” value came to 8.84 ± 0.47.
Take “ATTATACCACCCGATATACACACTTGTAGACATCTT [CACACA_site7944]”: the “gcPBM binding intensity (ln)” value was determined as 9.04 ± 0.41.
Consider “CATGTTATGATTCCATGTACTTATAGCATTAAAAAA [XGTACX_site8939]”, for which the “gcPBM binding intensity (ln)” value is 8.39 ± 0.4.
As for “TTTTTTTAATTAGTTTGTACATATTGTTATAATATA [XGTACX_site6294]”, the figure is 8.7 ± 0.52; as for “AAGTTACAAAATCAAAAGGAAAAAATATAAAATAAT [CACACA_negctrl_site561]”, 8.67 ± 0.55.
Consider “CAAGAAAATTGACACACACACATATTTATATTTATA [CACACA_site7766]”, for which the “gcPBM binding intensity (ln)” value worked out at 9.68 ± 0.39.
As for “AACATATATATATATACATGCATATGAACAACGAAT [TGCATGCA_site93]”, the figure is 9.25 ± 0.38; as for “TATAAAAATGTTTACACACACACATAAATATATTTT [CACACA_site2512]”, 9.39 ± 0.43; as for “TTTTTTTTTTTTCTGAGTACGAAAAATAGAGATAGA [XGTACX_site3825]”, 8 ± 0.35.
Regarding “TGTATAAATATAATCACACATATATATATATATATA [CACACA_site4365]”, the “gcPBM binding intensity (ln)” value was determined as 9.79 ± 0.27.
Regarding “ATCACATATATATATAATATATATATGTATATATTT [GTGCAC_negctrl_site249]”, the “gcPBM binding intensity (ln)” value was determined as 8.65 ± 0.37.
The same measure for “ATATATATATATATATGTACATATATTTTTATTTAT [XGTACX_site3508]”: 9.435 ± 0.0071; for “AAAAAAAATATATATGCACACACAAAAAAACAAATT [CACACA_site8349]”: 9.48 ± 0.37; for “CAACTAATATTAAAACGTACATAAATATTTAACAGA [XGTACX_site625]”: 8.74 ± 0.5.
As for “TATACCTTTTTATTCACACATATATGTCATATGTCA [CACACA_site5423]”, the figure is 9.28 ± 0.5.
Take “TATTACTTATAAATTACACACAAATGATTGAACATT [CACACA_site2259]”: the “gcPBM binding intensity (ln)” value amounted to 8.86 ± 0.33.
The same measure for “TTAATTACATGTAATTGTACTTAATTATAAGACATT [XGTACX_site464]”: 8.54 ± 0.37.
As to “TTTTACCTAAATATCACACATATTTAAATATATATA [CACACA_site5597]”, the “gcPBM binding intensity (ln)” value stood at 8.56 ± 0.47.
As to “TTAAAATAAAGAAAATGTACATAAATAAAAATAAAG [XGTACX_site2280]”, the “gcPBM binding intensity (ln)” value turned out to be 8.85 ± 0.5.
Consider “TTGTAATAAAGAATTAAAAAAAAATATATACAGGTA [GTGCAC_negctrl_site150]”, for which the “gcPBM binding intensity (ln)” value is 8.56 ± 0.54.
The same measure for “CATATATATATATATTGTACACATTTTTTATAAAAA [XGTACX_site2526]”: 8.61 ± 0.37; for “TATTTGCAATATAACACACACAAAAAAAGACTCGGA [CACACA_site6891]”: 9.31 ± 0.32; for “TATATGTAATATATATGTACGTATAATATAATATTG [XGTACX_site8620]”: 8.71 ± 0.32.
As for “AATTATACATTATATTGTACATATGAATAATTAAAA [XGTACX_site6829]”, the figure is 8.58 ± 0.44; as for “ATACAAATAAAAAAAAAAATTATAAAATTATAAAAT [CACACA_negctrl_site914]”, 8.51 ± 0.54.
Take “TATATATAAAGCAGTACACACATTTATTTTAGATAC [CACACA_site3387]”: the “gcPBM binding intensity (ln)” value turned out to be 8.95 ± 0.4.
The same measure for “AGTGATAATTTAAAAAGTACAAATGAAATTTAGCTA [XGTACX_site3375]”: 8.64 ± 0.41; for “AGAGAGAAAGCTATAACATGCAAAAATTTTTAGAAC [TGCATGCA_site420]”: 9 ± 0.47.
As for “TTTGTAACTTCTTTCACACATATATATATATATATA [CACACA_site5603]”, the figure is 9.54 ± 0.16.
